Assay results as given in PMC10726135.
The other results are listed elsewhere or left out. At the low end of the ranking the order means little. Measured with an extract: partners may take part in the binding.

target: T1, HNF4alpha2 (COS-7 nuclear extract) (UniProt P41235); test: protein-binding microarray; details: COS-7 nuclear extract on double-stranded Agilent 4x180k PBM; binding buffer, salt, pH and temperature not given; high values mean tight binding; double strand, one strand shown; sequences stand for … in …GCCTAGGGAGATTAGAGTATCGGTCGA
T1 sequence: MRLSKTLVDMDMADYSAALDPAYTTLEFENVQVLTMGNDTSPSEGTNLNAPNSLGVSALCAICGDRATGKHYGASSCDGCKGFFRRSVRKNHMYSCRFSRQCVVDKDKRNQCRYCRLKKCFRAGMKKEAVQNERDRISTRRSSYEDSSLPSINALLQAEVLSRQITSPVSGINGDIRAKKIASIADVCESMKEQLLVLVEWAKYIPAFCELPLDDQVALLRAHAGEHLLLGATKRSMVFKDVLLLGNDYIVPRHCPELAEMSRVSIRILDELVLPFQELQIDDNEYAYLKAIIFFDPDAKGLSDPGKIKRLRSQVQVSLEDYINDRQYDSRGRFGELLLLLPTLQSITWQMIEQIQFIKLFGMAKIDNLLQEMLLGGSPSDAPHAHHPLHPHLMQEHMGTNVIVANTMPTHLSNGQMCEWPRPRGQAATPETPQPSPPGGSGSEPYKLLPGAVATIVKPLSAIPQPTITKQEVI

Row | Sequence | binding signal (log2 normalized intensity)
1 | GCCTTTGGTACAGGGCCCAGAAAAGTAGAT | -1.06
2 | ACATTCCAGTGGTCCCTGGAGATAATAGTG | 0.0399
3 | GTCCAAATAGCGCTAACTCTATATCCAAGA | -1.23
4 | TCTATGCCAAGCTCTGGGCTAGTCCCTGAG | -0.951
5 | CTGGGGCCACCCTCCTCTCTGGGTCAAAGG | 4.74
6 | GCCAGCCAGGGCCACCCATCAGTGGACTTT | 6.63
7 | GAACAGCAAGACTTTGGCCCTGCAGACTTT | 2.09
8 | TTTTCACATGGAATGTCGTGCCCTAATCTC | 0.948
9 | AGAGATGTACACAGTTCAAAGGGCAGACAG | 3.75
10 | GGGAGGGGTGGACTTTGGCTTTTCCAAAGG | 4.32
11 | GCCACCCATCAGTGGACTTTGACCTTGTTT | 10.6
12 | ATGGTGACCATGTGATGTGAAGAGTGTGGA | 1.38
13 | AACTGATATGGCTCTGTTTTACAAACACAA | -1.02
14 | GTCACCACCTTTTTTGGCCTTTACCCCTTG | 4.8
15 | GACACTTCCAGCCAAACCAGGTCATGCATT | -0.383
16 | CTGGGAATGACATTTTGGACTACTTCATGT | 1.33
17 | TCTACTGCTCTATTTAGACTCAGCATGTCT | -0.799
18 | CCAGAGAAGCTGTGTAACCCTGGAGCCATA | -1.06
19 | TTGGACAAGGTAACCCCCAACATTCTTTCC | 2.79
20 | GACCCCTCCTCCCCCCGCCGCATCTACCAG | 5.54
21 | ATTGTTCCCTTGCTCCACCCTTCTATCCCC | 3.08
22 | CTGAGTGGAGGCCCAGTAAGTCCCACCCAC | 2.11
23 | TAGTATCCCTGAGTCATTTTTAGAAGCTCT | -0.614
24 | CATCAGGTGAGATAAGAAGACTCCAGGGGA | -1.16

Row | Sequence | binding signal (log2 normalized intensity)
25 | AGTGCTGCATGCAAAAAGGCTGACCTTTGA | 7.82
26 | TGCAGAAAAGGCCCCAGGGATTGCACAGGA | -1.3
27 | TTTCTCCATACCTCTTGCGTGTTATCTATG | 1.57
28 | AAGTCCCAGAAGTTCTAAGGTGGGAATGCT | -1.02
29 | AAACCAAGCTGTCCGACTGCACACCGTCCA | -1.08
30 | AAGCAGAAGCTGCACACATGTCAAAGGTCA | 6.19
31 | TGCCTTGGCCTCTGCAGACATGGACTCTGG | 4.08
32 | CTGTGCTTTGTTTACTTAACCTTTGATCAT | 7.05
33 | CCGGACGCGTCCTCGGCTCTGCGCAGGCGC | -0.728
34 | AAACCTTTGCCCAACAGGATTAGTGCTTCT | -0.149
35 | TGACTTTAAGTTGACTCCAATGCTCGTTGA | 0.968
36 | GAGTGGCCTTTAGAACCGGGGAGATACTGT | 0.581
37 | ATCACATTCTAATCCTCTGGTCTTTGCCCC | 4.6
38 | CCAAACAAATGGAGAAGGTCTAAGTAAACT | -1.19
39 | GACCTTTGCCCAAGCCGTTCCCTGTACCTA | 4.52
40 | TGGCCACTGGCCCAGCGGATTAATATCCAG | -1.13
41 | ATCAGGGGTCCTGGCAGCACCTGAAGAATT | -1.17
42 | CATAGCAAGAGTGACCTTTGCTCCAGTTCC | 7.45
43 | AAATAGGCAAGACTGCCACCTACTGACCAA | -1.16
44 | ACCTGAAAAACCTCTCTCCAGGTACAAGGA | -1.05
45 | TAACCAGGGAGTGGCAGCATTGTGCTGAAA | -0.512
46 | TGGGCTGTAAAAATCTATGGCAAAGGTCTC | 1.83
47 | CCTTTGGACTGTGACCCCACCTCTCAGACA | 4.83
